The source gives no read counts; variants with many changes may rest on few reads.
B1: LINE1-mini (parent)
chain: GGCAGAGCUCAACACAGCGUGGCAAAGUGGCUGUGGCUAGACUGCC

Variants of: B1
Test: self-cleavage, relative activity (ratio to wild type); higher = more cleavage; in vitro, sequencing; the parent is a self-cleaving ribozyme

| Variant | self-cleavage |
| --- | --- |
| GGCAGAGCUAAACACAUCGUGUAAAAGUGGCUGUGGCUAGACUGCC | 0.09 |
| GGCAGAGCUAAACACAAAGUGGCAAAGUGGCUGUGGCUAGACGGCC | 0.02 |
| GGCAGAGCUAAACACAGCCUGCCAAAGUGGCCGUGCCUAGACUGCC | 0.01 |
| GGCAGAGCUAAACACAGGGGGGGAAAGUGGCUGUGGCUAGACUGCC | 0.02 |
| GGCAGAGCUAAACACAGCGUGGCACAGUGGGUGUGGCUAGACUGCC | 0.04 |
| GGCAGAGCUAAACACAGCGUGGCGAAGUGGCUGUGGCGAGACUGCC | 0.08 |
| GGCAGAGCUAAACACAGCGUGGCAAUGUGGCUGUGUCUAGUCUGCC | 0.01 |
| GGCAGAGCUAAACACAGCGUGGCAAUGUGGCUGUGGCCAGAGUGCC | 0.03 |
| GGCAGAGCUAAACACAGUGAGGCAAAGAGGCUUUGGCUAGACUGCC | 0.03 |
| GGCAGAGCUAAACACACCGUGGCAAAGUGUCUGUGGCUAGAUUGCC | 0.03 |
| GGCAGAGCUAAACACAGAGUGGCAAAGCGACUGUGGCUAGACUGCC | 0.03 |
| GGCAGAGCUAAACAUAGCGUGGCAAUGUGGCUGUGGCUAGACUGCC | 0.02 |
| GGCAGAGCUAAACACAGCGUGGCAAAGUGGGUGUGGCUAGACUGUC | 0.03 |
| GGCAGAGCUAAACAUAUCGUGGCAAAGUGGCUGAGGUUAGACUGCC | 0.09 |
| GGCAGAGCUAAACACAGCGUGGCAAUGUGGCUGUGGCUAGCCUCCC | 0.04 |
| GGCAGAGCUAAACACAUCGUGUCACAGUGGCUGUGGCUAGACUGCC | 0.05 |
| GGCAGAGCUAAACACAGCGUGGCACAGUGGCUGUGGCUAGCCUGCC | 0.05 |
| GGCAGAGCUAAACACAGCGUGGAAAAGUGGCUAUGGCUAGAUUGCC | 0.05 |
| GGCAGAGCUAAAGACGGCGUGGCAAAGUGGCUGUGGCUACACUGCC | 0 |

| Variant | self-cleavage |
| --- | --- |
| GGCAGAGCUAAACAAAGCGGGGCAAAGUGGCUGUGGCUAGACUGCC | 0.02 |
| GGCAGAGCUAAACACUGCGUGGCAAAGUGGCUGUGCCUAGACUGCC | 0.02 |
| GGCAGAGCUAAAAACAGAGUGGCAAAGUGGCUGUGGCUAGACUGCC | 0.04 |
| GGCAGAGCUAAACUCAGCGUGGCAAAUUGGCUGUGGCUAAACUGCC | 0.01 |
| GGCAGAGCUAAACAUAGCGUUGCAAAGUGGCUCAGGCUAGACUGCG | 0.03 |
| GGCAGAGCUAAACACAGCCUGGCAAAGUGGCUGUGGCUAGACUGCU | 0.01 |
| GGCAGAGCUAAACACAGAGUGGCAAAGUGGCUGUGGUUAGACUGAC | 0 |
| GGCAGAGCUAAACACUGCGUGGCAAAGUGGCGGUGGCUAGACUGCC | 0.07 |
| GGCAGAGCUAAACACAGCGUGGCUGGGUGGCUGUGGCUAGACUGCC | 0.03 |
| GGCAGAGCUAAACAGAGCGUGGCAAAGUGGCUGUGGCUAGACCGCC | 0.02 |
| GGCAGAGCUAAAGACAGCGUAGCAAAGUGGCUGUUGCUCGACUGCC | 0.03 |
| GGCAGAGCUAAACACAGCGUGGCAAUGUGGCUGACGCUAGACUGCC | 0 |
| GGCAGAGCUAAACACAGCGUGGCACAGUGGCUGUGGCUGGACUGCC | 0.02 |
| GGCAGAGCUAAACACAGCCCGGCAAAGUGGCUGUGGCUAGUCUGCC | 0.02 |
| GGCAGAGCUAAACACGGCCUGGCAAAGUGGCUAUGUCUAGACUGCC | 0.01 |
| GGCAGAGCUAAACUCAGCGUGGCAAAGUGGCUGUGACUAGACUGCC | 0 |
| GGCAGAGCUAAACACAGGGUGGCAAUGUGGUUGUGGCUAGACUGCC | 0.02 |
| GGCAGAGCUAAACACGGCGUGGCAAAGUGGAUGUGGCUAGACUGAC | 0.02 |
| GGCAGAGCUAAACACAGCGUGGAAAAGUGGCUGUCGCUAGUCUGCC | 0.01 |

| Variant | self-cleavage |
| --- | --- |
| GGCAGAGCUAAACACAGCGUGGCACAGUGGCUGUGGCUAGACUGCU | 0.02 |
| GGCAGAGCUAAACACAGCGUGGCACAGUGGCUGUGGCUAGACUGCA | 0.02 |
| GGCAGAGCUAAACACAGCGUGGCCAAGUAGCUGUGGCUAGCCUGCC | 0 |
| GGCAGAGCUAAACUCAGCGUGGCAAAGUGGCUUUGGCCAGACUGCC | 0 |
| GGCAGAGCUAAACAUAGCGUGGAAAAGUGGCUGUAGCUAGACUGCC | 0.01 |
| GGCAGAGCUAAACACAGCGUGGAAAUGUGGCUGUGGCUAGACUGCC | 0.04 |
| GGCAGAGCUAAACACAGUGUGCCAAAGUGGCUGUGGCUAGACAGCC | 0.01 |
| GGCAGAGCUAAACACAUCGUGGCAGAGAGGCUGUGGCUAGACUGCC | 0.02 |
| GGCAGAGCUAAACAUAGCUUGGCAAAGUGUCUGUGGCUACAAUGCC | 0.02 |
| GGCAGAGCUAAAGAUAGCGUGGCAAAGUGGCUGUGGUUAGCCUGCC | 0.02 |
| GGCAGAGCUAAACAUAGCGUGGCAAAGUGGCUGUGGAUAUACUGCU | 0.03 |
| GGCAGAGCUAAACACCGCGUGCCAAAGUGGCUGUGACUAGCUUGCC | 0.01 |
| GGCAGAGCUAAACACAGAGUGGCAAAGUGGCUGUUGCUAGACUGCC | 0.01 |
| GGCAGAGCUAAACACAGCGUGGAAAGGUGGCUGUGCCUAUACUGCC | 0.03 |
| GGCAGAGCUAAACACAGCGUGGCAAAGUGGAUCUGGCUAGACUGCC | 0 |
| GGCAGAGCUAAACACAGCGUGGCACAGUGGCUUUGGCUAGACUGCC | 0.05 |
| GGCAGAGCUAAACACAGAGUGGCAAAGUGGCUGUGACUAGACUGCC | 0.08 |
| GGCAGAGCUAAACACAGCGUGGCAAAGUGGAUGUGGCUAGACUGAC | 0.02 |
